# ± gives the standard deviation of the averaged measurements. This is one part of the list.
# Tested on: PfAP2-I AP2 domain 3 (GST-tagged)
# Experiment: gcPBM binding intensity (ln(normalized median fluorescence intensity)); higher = stronger DNA binding
# In short: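 An Agilent 4 × 180k array carrying primer-extended double-stranded 36-bp intergenic genomic probes and negative controls received GST-tagged P. falciparum DNA-binding domains expressed in E. coli, about 25 μg on average, for 1 h. The binding buffer contained 1× PBS, 1% milk, 0.2 mg/ml BSA, 0.5% salmon testes DNA and 0.03% Triton X-100. Binding intensity is the top Masliner-normalised natural-log median intensity across replicate spots of either probe orientation, read after Alexa488 anti-GST antibody staining and a 488 nm scan.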
row,Sequence,gcPBM binding intensity (ln)
1,ATTTACCCTTGCCATGCACACTTTTTTATAGAAAAT [CACACA_site5857],8.95 ± 0.44
2,GAATGAATACGTTTTACACACTTGAATATAATTTCA [CACACA_site989],7.78 ± 0.64
3,ATATATAAATTTAATACACACCCAAAAAAAAAAAAA [CACACA_site7719],8.21 ± 0.6
4,AAAATTATAAAATGGGCACACATGAAGATTGTAGTA [CACACA_site2226],7.87 ± 0.68
5,TAAATATATAAACACACACACATTAATACAGATATT [CACACA_site5851],7.72 ± 0.54
6,TATATATTTTTATGCACACACAAAGAAAATTTTCCT [CACACA_site2863],10.3 ± 0.47
7,AAAAAAAATTAAAATAAAATATAAATATAAAATATA [GTGCAC_negctrl_site714],7.26 ± 0.24
8,AAAGTATAACGGATACCATTTATGTGATTATTTTGT [XGTACX_negctrl_site188],7.43 ± 0.69
9,AAATATATATAAGCGTGTACACATTCTGAGTGTTGT [XGTACX_site1088],8.07 ± 0.57
10,TATCGTTTTATTCGGTTGCACCAAAAAAATAAAATA [GTGCAC_site9408],9.33 ± 0.2
11,ATAATAAAAATAAAATGTACATACATAAATATATAT [XGTACX_site6228],7.87 ± 0.68
12,AGCTATAATAAATATACACACATATATAAATATGTA [CACACA_site6583],7.38 ± 0.62
13,ATATATATATAATAAGTGCAAAAATAATGACCTATA,9.845 ± 0.007
14,TACCAAAAGAAACACACACACAAAATATATAAATAT [CACACA_site1869],7.7 ± 0.45
15,TCCCATATATATATATATATATATATATATAATAAT [TGCATGCA_negctrl_site41],8.53 ± 0.42
16,ATACTTTTAATATGCACATGCAAATATGAAATATCG [TGCATGCA_site603],9.22 ± 0.39
17,TTTGGCTAGTCAAGTTGTACAAAAAAAAAAAAAAAA [XGTACX_site8382],8.03 ± 0.54
18,AATTTATATTAAAATTGTACATTTCTTCTATAATAC [XGTACX_site8639],7.74 ± 0.66
19,AATATATTTAATGAGTGTACATTATTTATTATTATT [XGTACX_site6889],7.7 ± 0.49
20,AAATAAAAAAAATAAAAGCAATCATAATAAAAATCT [CACACA_negctrl_site161],7.62 ± 0.68
21,TGTATGTATTTGTGTAGTACGCATAAGTAATAAAAC [XGTACX_site6704],8.55 ± 0.4
22,CCTATATAATATATTTGTACTTAATAATTAAAGTGT [XGTACX_site5151],7.95 ± 0.25

row,Sequence,gcPBM binding intensity (ln)
1,TATATATATATATATTGTACATATGTAACCTTTTAA [XGTACX_site3914],9.38 ± 0.4
2,ATAAGATTAAACATTGCACACAGAAATATATTTTCT [CACACA_site8743],8.57 ± 0.44
3,TTTTTTAGATTACATAAATATAAATATAAATATATA [GTGCAC_negctrl_site459],7.26 ± 0.36
4,TCAACTATCAATATAGTGCATTTTTTTTGGAAAACC [GTGCAC_site9927],9.36 ± 0.071
5,TATCAAAATTAGTATACACACAAAATTAATCAAATA [CACACA_site7117],7.45 ± 0.51
6,CATTTTGTTTTAAAGTGTACATTATGTAATATAAAA [XGTACX_site647],7.84 ± 0.43
7,ATTTATATTACCCTTGCATGTAGGTGCAATTTTTTT [TGCATGCA_site757],10.64 ± 0.085
8,TTTTTATAGGTAAAAACACACGCTAAAAATAATTAA [CACACA_site3731],7.67 ± 0.69
9,AGGTACTTTTTTAAAACACACATATAATAAATACAC [CACACA_site4730],8.59 ± 0.16
10,AATAAATATATATTCACACACAAACATATATATATA [CACACA_site4023],9.22 ± 0.13
11,TTTATAATTTATATCACACACATATATATATAGTAA [CACACA_site8],7.67 ± 0.44
12,AAATAAATAAATAAATAAACAAATATGTATAAATGG [XGTACX_negctrl_site153],7.81 ± 0.45
13,ATATATATATATAAAAGTACTTATTTTTATTTACAT [XGTACX_site4299],9.07 ± 0.35
14,GAGAGTACCTATATTGCATGCAGACTTTTTAAATAT [TGCATGCA_site564],8.1 ± 0.71
15,TAAAATAAAAATTTATGTACACATAAAAAAACAAAA [XGTACX_site1112],7.97 ± 0.62
16,GTTAAAATAATATGGTGTACAAATATATAAGTTCAT [XGTACX_site3262],8.14 ± 0.65
17,TTTTTTTTTTTTTGTAGTACATTATGTATATTTTTA [XGTACX_site7810],8 ± 0.51
18,TTAATAAGAGAGCAATAGGTGGACTGTTTCTTTTAT [CACACA_negctrl_site1239],7.84 ± 0.6
19,GTGCCCTTTTTAATAACATGCAAATAACATATTTAT [TGCATGCA_site709],8.55 ± 0.28
20,AAAAAAAAAAAAAACACACAAACATCAAATTATTAT [CACACA_site1838],8.13 ± 0.59
21,AATTAGATGGATAAATGTACATATGTGAATATATTT [XGTACX_site85],7.95 ± 0.62
22,ATATAACACAAGGGCACACATATACCTTTCCTTTTT [CACACA_site412],8.44 ± 0.54
